Measured values published in paper PMC6451091.
The other results are listed elsewhere or left out. For part of these data: At the low end of the ranking, values are background and their order means little. For part of these data: Measured with an extract: partners may take part in the binding.

These sequences were tested against PU.1 (IVT) (UniProt P17947) (assay: protein-binding microarray (PBM)). Settings: 20 mM HEPES pH 7.9, 100 mM NaCl, 1 mM DTT, 0.2 mg/mL BSA, 0.02% Triton X-100, 2% milk, 0.4 mg/mL salmon testes DNA; 1 h; temperature not stated; high values mean tight binding; double strand, one strand shown; sequences stand for … in GCCTAGCAC…GTGCTAGGTCTTGATTCGCTTGACGCTGCTG.

| Sequence | binding signal |
| --- | --- |
| AAGAAGAGGAAGAGAGACCT | 2.71 z-score |
| ACTTAAAGGAAGTGGGAAAA | 2.63 z-score |
| AGAGAAAGGAAGTGAAATTC | 2.99 z-score |
| ACAATAGGGAAGTGATGGTG | 5.26 z-score |
| CCTGGGAGGAAGTGGGTGCC | 3.33 z-score |
| AAATAAAGGAACTGGCTAGA | 2.69 z-score |
| TGGAAGAGGAACTGCTCTTC | 4 z-score |
| TTAAAGGGGAAGTTAAGTTT | 6.86 z-score |
| GGAAACAGGAAGTGAGAGAG | 6.84 z-score |
| TTTTTGAGGAACTGCCAAGC | 4.24 z-score |
| CTGCTGAGGAAGTGATGTTT | 3.13 z-score |
| TTTGGAAGGAACTACTGTGA | 1.32 z-score |
| GTTGAGAGGAAGTGAAGCTT | 3.94 z-score |
| AGGAAGGGGAAGTGCCCCAG | 5.32 z-score |
| CAAAAAGGAAAGTGGATGCT | 0.773 z-score |
| TGCAGGGGGAAGTGACTGAT | 3.63 z-score |
| AGAAAGAGGAAGTGTAAAAA | 8.57 z-score |
| AAATTGAGGAAGTCTAGTTC | 6.59 z-score |
| GATAAGAGGAACTCCTCTGT | 3.92 z-score |
| CCAAGGGGGAAGTGAATGTT | 4.49 z-score |

| Sequence | binding signal |
| --- | --- |
| CCAAACAGGAAGTGCTTGTC | 5.99 z-score |
| CCTAAGAGGAAGTGGAAAGC | 5.22 z-score |
| AAAAACAGGAAGTGGGGAAA | 8.01 z-score |
| AGTTTGAGGAAGTGTTGCAA | 6.25 z-score |
| AAAAAAAGGAAGTGGTAAAT | 6.55 z-score |
| GAGAAGAGGAAGTCCCCATT | 6.15 z-score |
| GAAAACAGGAAGTCCTATAG | 7.14 z-score |
| AAAAAGGGGAAGTCAAATTG | 8.09 z-score |
| ACAAACAGGAAGTGTCCTGT | 5.9 z-score |
| AAAAAGAGGAAGGGAGTAGA | 4.77 z-score |
| CTCATGGGGAAGTGAGCTCT | 4.16 z-score |
| GAAAAGAGGAAGTCAGATTA | 8.07 z-score |
| AAAAAAAGGAACTGGCGAGA | 4.12 z-score |
| CGAAAGGGGAAGTTCTAAAC | 7.34 z-score |
| GAAAGAGGGAAGTGGGTGCC | 4.85 z-score |
| CAACAAGGGAAGTGGATGCT | 1.94 z-score |
| AGAATGGGGAAGTGGAAATC | 6.86 z-score |
| CAGAAGGGGAAGTGAAAACA | 5.54 z-score |
| AAAAAATGGAACTGGCTAGA | 1.38 z-score |
| GAAGTAGGGAAGTGAAAGAG | 3.36 z-score |

What follows are sequences tested against PU.1 (endogenous, THP-1 nuclear extract) (UniProt P17947) (assay: nuclear extract protein-binding microarray (nextPBM)). Settings: 20 mM HEPES pH 7.9, 100 mM NaCl, 1 mM DTT, 0.2 mg/mL BSA, 0.02% Triton X-100, 2% milk, 0.4 mg/mL salmon testes DNA; 1 h; temperature not stated; high values mean tight binding; double strand, one strand shown; sequences stand for … in GCCTAGCAC…GTGCTAGGTCTTGATTCGCTTGACGCTGCTG.

| Sequence | binding signal |
| --- | --- |
| AAGAAGAGGAAGAGAGACCT | 2.85 z-score |
| ACTTAAAGGAAGTGGGAAAA | 2.31 z-score |
| AGAGAAAGGAAGTGAAATTC | 2.52 z-score |
| ACAATAGGGAAGTGATGGTG | 5.83 z-score |
| CCTGGGAGGAAGTGGGTGCC | 3.23 z-score |
| AAATAAAGGAACTGGCTAGA | 2.78 z-score |
| TGGAAGAGGAACTGCTCTTC | 4.45 z-score |
| TTAAAGGGGAAGTTAAGTTT | 6.74 z-score |
| GGAAACAGGAAGTGAGAGAG | 6.91 z-score |
| TTTTTGAGGAACTGCCAAGC | 4.52 z-score |
| CTGCTGAGGAAGTGATGTTT | 2.77 z-score |
| TTTGGAAGGAACTACTGTGA | 1.39 z-score |
| GTTGAGAGGAAGTGAAGCTT | 3.9 z-score |
| AGGAAGGGGAAGTGCCCCAG | 6.59 z-score |
| CAAAAAGGAAAGTGGATGCT | 0.165 z-score |
| TGCAGGGGGAAGTGACTGAT | 3.93 z-score |
| AGAAAGAGGAAGTGTAAAAA | 7.48 z-score |
| AAATTGAGGAAGTCTAGTTC | 6.74 z-score |
| GATAAGAGGAACTCCTCTGT | 4.01 z-score |
| CCAAGGGGGAAGTGAATGTT | 4.47 z-score |

| Sequence | binding signal |
| --- | --- |
| CCAAACAGGAAGTGCTTGTC | 6.47 z-score |
| CCTAAGAGGAAGTGGAAAGC | 6.09 z-score |
| AAAAACAGGAAGTGGGGAAA | 7.22 z-score |
| AGTTTGAGGAAGTGTTGCAA | 6.23 z-score |
| AAAAAAAGGAAGTGGTAAAT | 6.54 z-score |
| GAGAAGAGGAAGTCCCCATT | 6.4 z-score |
| GAAAACAGGAAGTCCTATAG | 7.39 z-score |
| AAAAAGGGGAAGTCAAATTG | 7.53 z-score |
| ACAAACAGGAAGTGTCCTGT | 6.24 z-score |
| AAAAAGAGGAAGGGAGTAGA | 5.71 z-score |
| CTCATGGGGAAGTGAGCTCT | 4.33 z-score |
| GAAAAGAGGAAGTCAGATTA | 7.35 z-score |
| AAAAAAAGGAACTGGCGAGA | 3.86 z-score |
| CGAAAGGGGAAGTTCTAAAC | 7.21 z-score |
| GAAAGAGGGAAGTGGGTGCC | 5.52 z-score |
| CAACAAGGGAAGTGGATGCT | 2.19 z-score |
| AGAATGGGGAAGTGGAAATC | 6.84 z-score |
| CAGAAGGGGAAGTGAAAACA | 6.54 z-score |
| AAAAAATGGAACTGGCTAGA | 1.15 z-score |
| GAAGTAGGGAAGTGAAAGAG | 2.97 z-score |

The sequences below were run against T1, FLI1 (endogenous, THP-1 nuclear extract) (UniProt Q01543) in the same assay as above. Settings: 20 mM HEPES pH 7.9, 100 mM NaCl, 1 mM DTT, 0.2 mg/mL BSA, 0.02% Triton X-100, 2% milk, 0.4 mg/mL salmon testes DNA; 1 h; temperature not stated; high values mean tight binding; double strand, one strand shown; sequences stand for … in GCCTAGCAC…GTGCTAGGTCTTGATTCGCTTGACGCTGCTG.
T1 sequence: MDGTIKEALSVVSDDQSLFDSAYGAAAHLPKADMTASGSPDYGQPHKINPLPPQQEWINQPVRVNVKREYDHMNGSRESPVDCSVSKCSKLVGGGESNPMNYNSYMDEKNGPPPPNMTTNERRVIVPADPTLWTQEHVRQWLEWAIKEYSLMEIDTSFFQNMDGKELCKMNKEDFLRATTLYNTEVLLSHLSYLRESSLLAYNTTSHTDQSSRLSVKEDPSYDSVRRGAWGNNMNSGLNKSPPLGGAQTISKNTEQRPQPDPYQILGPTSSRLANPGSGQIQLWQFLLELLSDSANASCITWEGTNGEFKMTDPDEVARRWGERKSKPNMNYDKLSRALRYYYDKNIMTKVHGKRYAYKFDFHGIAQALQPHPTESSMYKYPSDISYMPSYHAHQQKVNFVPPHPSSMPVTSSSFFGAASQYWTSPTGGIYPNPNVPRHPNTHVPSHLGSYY

| Sequence | binding signal |
| --- | --- |
| AAGAAGAGGAAGAGAGACCT | 0.832 z-score |
| ACTTAAAGGAAGTGGGAAAA | 2.15 z-score |
| AGAGAAAGGAAGTGAAATTC | 2.39 z-score |
| ACAATAGGGAAGTGATGGTG | 1.91 z-score |
| CCTGGGAGGAAGTGGGTGCC | 2.62 z-score |
| AAATAAAGGAACTGGCTAGA | 0.867 z-score |
| TGGAAGAGGAACTGCTCTTC | 1.62 z-score |
| TTAAAGGGGAAGTTAAGTTT | 2.73 z-score |
| GGAAACAGGAAGTGAGAGAG | 5.39 z-score |
| TTTTTGAGGAACTGCCAAGC | 1.02 z-score |
| CTGCTGAGGAAGTGATGTTT | 2.24 z-score |
| TTTGGAAGGAACTACTGTGA | 0.204 z-score |
| GTTGAGAGGAAGTGAAGCTT | 2.83 z-score |
| AGGAAGGGGAAGTGCCCCAG | 2.98 z-score |
| CAAAAAGGAAAGTGGATGCT | 0.841 z-score |
| TGCAGGGGGAAGTGACTGAT | 1.85 z-score |
| AGAAAGAGGAAGTGTAAAAA | 4.43 z-score |
| AAATTGAGGAAGTCTAGTTC | 3.06 z-score |
| GATAAGAGGAACTCCTCTGT | 1.18 z-score |
| CCAAGGGGGAAGTGAATGTT | 2.34 z-score |

| Sequence | binding signal |
| --- | --- |
| CCAAACAGGAAGTGCTTGTC | 5.66 z-score |
| CCTAAGAGGAAGTGGAAAGC | 2.89 z-score |
| AAAAACAGGAAGTGGGGAAA | 5.2 z-score |
| AGTTTGAGGAAGTGTTGCAA | 2.6 z-score |
| AAAAAAAGGAAGTGGTAAAT | 3.12 z-score |
| GAGAAGAGGAAGTCCCCATT | 2.85 z-score |
| GAAAACAGGAAGTCCTATAG | 5.04 z-score |
| AAAAAGGGGAAGTCAAATTG | 3.52 z-score |
| ACAAACAGGAAGTGTCCTGT | 5.3 z-score |
| AAAAAGAGGAAGGGAGTAGA | 2.18 z-score |
| CTCATGGGGAAGTGAGCTCT | 1.64 z-score |
| GAAAAGAGGAAGTCAGATTA | 4.05 z-score |
| AAAAAAAGGAACTGGCGAGA | 1.68 z-score |
| CGAAAGGGGAAGTTCTAAAC | 3.01 z-score |
| GAAAGAGGGAAGTGGGTGCC | 1.97 z-score |
| CAACAAGGGAAGTGGATGCT | 1.56 z-score |
| AGAATGGGGAAGTGGAAATC | 3.09 z-score |
| CAGAAGGGGAAGTGAAAACA | 2.67 z-score |
| AAAAAATGGAACTGGCTAGA | 0.0495 z-score |
| GAAGTAGGGAAGTGAAAGAG | 1.26 z-score |
